# In PubChem BioAssay AID1508623 (National Center for Advancing Translational Sciences (NCATS), 2021):
# Among all 48,000 compounds or so, about 450 (0.94%) were called active. Inconclusive means that the source gave no clear call. Such entries were picked first, then a sample of the others. Calls come from the whole dose curve; as a rule, active = well fitted inhibition curve with a large enough effect; inconclusive = small, poorly fitted or top-dose-only effect; inactive = no such curve, though single readings can be large or run the other way. Potencies of inconclusive entries are doubtful fits and often do not repeat.
# Assay: Primary qHTS for Identification of Small Molecule Inhibitors of Huntingtin Promoter Activity; note: nearly all actives have a fitted effect of over 50% in size
# Conditions: HEK293 HTT promoter firefly luciferase reporter (activity 0% = vehicle and -100% = no light), 24 h; activity change, negative = inhibition: at 57.5 µM (top of the series)
# Procedure, shortened: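 HEK293 cells carrying firefly luciferase reporters were seeded at 2,500 per well in Opti-MEM and cultured for 24 h. They were then treated with compounds at up to 57.5 uM final for 24 h at 37 degrees C before Dual-Glo luminescence readout.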
# Potency is the fitted concentration of half-maximal effect; tags give direction and shape of the fitted curve.
Compound,Potency,"activity change, negative = inhibition"
COc1ccc(C2c3c(n(C)c4ccccc34)C(=O)N2CC(=O)Nc2ccc(C)cc2Cl)cc1 (stereo not given),"inconclusive: 12.6 µM [inhibitor, partial curve]",
CCN(CC)S(=O)(=O)c1ccc(-c2csc(=Nc3cccc(C(F)(F)F)c3)n2Cc2ccc3c(c2)OCO3)cc1,"inconclusive: 28.2 µM [inhibitor, partial curve, poor fit]",
O=c1c(O)c(-c2ccc(O)c(O)c2)oc2cc(O)cc(O)c12,inactive,
Cc1ccc(S(=O)(=O)N2CCCc3cc(NS(=O)(=O)c4ccc(F)cc4)ccc32)cc1,"inconclusive: 35.5 µM [inhibitor, single point]",
CCc1ccc(-c2cc(C)no2)cc1S(=O)(=O)NCc1ccco1,"inconclusive: 17.8 µM [inhibitor, partial curve]",
COc1ccc(C2=N[C@H](c3ccc(Cl)cc3)[C@H](c3ccc(Cl)cc3)N2C(=O)N2CCNC(=O)C2)c(OC(C)C)c1,,inactive: -10.8%
Cc1ccc2nc(NC(=O)c3ccc(S(=O)(=O)N4CCCc5ccccc54)cc3)sc2c1,"inconclusive: 5.62 µM [inhibitor, full curve]",
COc1ccc(OC)c(NC(=O)c2c(NCc3ccc(OC)c(OC)c3)sc3c2CCC(C)C3)c1 (stereo not given),"inconclusive: 31.6 µM [inhibitor, partial curve, poor fit]",
C=Cc1ccc(Cn2c(C(=O)O)c(CNCCc3ccccc3)c3ccc(C)cc32)cc1,"inconclusive: 14.1 µM [inhibitor, single point]",
COc1cc(NS(=O)(=O)c2ccc3[nH]c4c(c3c2)CCCC4)cc(OC)c1OC,"inconclusive: 2.24 µM [inhibitor, partial curve, poor fit]",
Cc1ccccc1OCCCCn1c(C2CC(=O)N(c3ccccc3Cl)C2)nc2ccccc21 (stereo not given),"inconclusive: 39.8 µM [inhibitor, single point]",
COc1ccc(CC(=O)Nc2ccc3nc(Nc4cccc(Cl)c4)cc(C)c3c2)cc1,"inconclusive: 31.6 µM [inhibitor, partial curve]",
CCOC(=O)C1CCCN(c2c(C(=O)c3ccc(C)cc3)cnc3ccc(OCC)cc23)C1 (stereo not given),"inconclusive: 22.4 µM [inhibitor, single point]",
Cc1cc(-c2ccc(S(=O)(=O)Nc3cc(Cl)ccc3C)s2)on1,"inconclusive: 15.8 µM [inhibitor, partial curve, poor fit]",
Cc1ccc(Cl)cc1N1CCN(C(=O)c2ccc(CS(=O)(=O)c3ccc(Br)cc3)o2)CC1,"inconclusive: 39.8 µM [inhibitor, partial curve, poor fit]",
